Test results published in PubChem BioAssay AID624417 (National Center for Advancing Translational Sciences (NCATS), 2012).
About 6,400 (1.6%) of roughly 410,000 compounds were called active. The inconclusive results got no clear call from the source; some entries with a clear call stand among them for comparison. The call rests on the fitted dose curve; in most records, active means well fitted inhibition curve with a large enough effect; inconclusive means small, poorly fitted or top-dose-only effect; inactive means no such curve, though single readings can be large or run the other way. A potency beside an inconclusive call is a rough fit, not a confirmed value.

What follows are compounds tested against Glucagon-like peptide 1 receptor (Homo sapiens) (UniProt P43220) (assay: qHTS of GLP-1 Receptor Inverse Agonists (Inhibition Mode)). Conditions: HEK293 GLP-1R CRE-luciferase, luminescence, 24 h, GLP-1R form is constitutively active; activity change, negative = inhibition: at 38.3 µM (top of the series) unless noted.
How it was run: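 Stable HEK293 clone (constitutively active GLP-1R + cAMP-response luciferase); 200 cells/uL plated, 12 h pre-culture, compound 24 hr, 37 deg C/5% CO2; detection reagent 12 min RT; luminescence.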
Further: nearly all actives have a fitted effect of over 55% in size.
On the % scale 0 is the no-effect control and ±100 the full control effect; potency means the concentration at half of the fitted maximal effect; tags describe the fitted curve by direction and shape.

Sequence of UniProt P43220 (P43220 whole entry, looked up): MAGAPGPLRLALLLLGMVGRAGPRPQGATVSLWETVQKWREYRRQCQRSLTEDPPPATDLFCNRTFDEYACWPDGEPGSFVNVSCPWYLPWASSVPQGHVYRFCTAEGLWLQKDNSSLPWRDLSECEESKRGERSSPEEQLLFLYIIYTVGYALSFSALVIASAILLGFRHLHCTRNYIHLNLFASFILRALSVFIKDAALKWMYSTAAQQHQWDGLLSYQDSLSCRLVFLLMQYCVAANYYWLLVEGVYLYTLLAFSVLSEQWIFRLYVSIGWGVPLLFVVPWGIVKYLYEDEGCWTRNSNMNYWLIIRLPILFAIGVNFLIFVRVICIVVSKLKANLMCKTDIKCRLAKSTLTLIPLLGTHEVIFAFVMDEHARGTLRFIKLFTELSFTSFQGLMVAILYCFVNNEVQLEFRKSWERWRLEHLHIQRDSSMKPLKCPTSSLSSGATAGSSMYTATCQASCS

Activity change, negative = inhibition, inactive:
Cn1c(=O)c2cc(C(=O)N3CCN(c4cccc(C(F)(F)F)c4)CC3)sc2c2ccccc21 11.3%
CC(C)CCOc1ccc(C(=O)Nc2cc(S(=O)(=O)N3CCOCC3)ccc2N2CCOCC2)cc1 -10.7%
O=C(Nc1cc(C(F)(F)F)ccc1Cl)c1cc(-c2cccs2)nc2ccccc12 1.37%
O=C(Nc1nnc(Cc2ccccc2)s1)c1cccs1 0.885%
Fc1ccccc1COc1ccc(/C=N/n2cnnc2)cc1 9.17%
Cc1ccc(C)c(N2CCN(S(=O)(=O)c3ccc(-c4cc(C(F)(F)F)on4)s3)CC2)c1 3.55%
Cc1ccc(NS(=O)(=O)c2ccc(C)c(C(=O)Nc3ccc(S(=O)(=O)Nc4onc(C)c4C)cc3)c2)cc1 11.1%
Cc1cc2c(N)cccc2nn1 15.9%
Cc1ccc(Cc2nc3ccccc3n2C(CCc2ccccc2)c2nc3ccccc3[nH]2)cc1 (stereo unspecified) 23.7%
CCOC(=O)C(C(=O)N(C)C)c1ncc(C(F)(F)F)cc1Cl (stereo unspecified) 4.31%
O=[N+]([O-])c1ccc(C(O)C[n+]2ccccc2)cc1 (stereo unspecified) -8.29%
O=C(CCN1C(=O)C2C3C=CC(C4CC34)C2C1=O)Oc1ccc(Br)cc1 (stereo unspecified) -7.71%
Cn1ncc2c(N3CCN(c4cccc(Cl)c4)CC3)ncnc21 -0.0497%
COc1ccc(-c2nc(CSCC(=O)NCC3CCCO3)c(C)o2)cc1OC (stereo unspecified) 9.26%
COC(=O)c1ccc(COc2ccc3c4c(c(=O)oc3c2)CCC4)o1 35.4%

Potency, inconclusive:
COc1ccccc1C(=O)Nc1nnc(CCc2ccccc2)s1 28.2 µM [inhibitor, single point]
COc1ccc(S(=O)(=O)Nc2ccccc2C(=O)Nc2nc(-c3ccc(F)cc3)cs2)cc1OC 11.2 µM [inhibitor, single point]
CC(=O)Nc1ccc(OS(=O)(=O)c2c(C)cc(C)cc2C)cc1 22.4 µM [inhibitor, single point]
Cc1ccc(NC(=O)c2cc3c(s2)CCCC3)cc1 10 µM [inhibitor, single point]
O=C(Cc1ccc(F)cc1)Nc1ccc(F)c([N+](=O)[O-])c1 31.6 µM [inhibitor, single point]
CCOc1cccc(OCCOc2ccc(C(=O)c3ccccc3)cc2)c1 25.1 µM [inhibitor, single point]
O=C1N[C@@H](Cc2c[nH]c3ccccc23)COC(=O)[C@@H](Cc2ccc(F)cc2)CC/C=C/C[C@@H]1CC(=O)N(CCO)Cc1ccccc1 11.2 µM [inhibitor, partial curve, poor fit]
Cc1cccnc1CNC(=O)C1(C)CCCN1CC(C)C (stereo unspecified) 20 µM [inhibitor, single point]
CCOc1cccc(CN2CCCC(C(=O)c3cc(Cl)ccc3OC)C2)c1O (stereo unspecified) 11.2 µM [inhibitor, single point]
Fc1ccc2cc(CCO[C@H]3CCCCO3)ncc2c1 7.94 µM [inhibitor, partial curve]
Cc1c(Cl)cccc1NC(=O)C1CCCN(C(=O)c2cnn(-c3ccccc3)c2-n2cccc2)C1 (stereo unspecified) 12.6 µM [inhibitor, partial curve, poor fit]
CCOC(=O)c1c(NC(=O)CN2C(=O)NC3(CCCCC3C)C2=O)sc(C)c1CC (stereo unspecified) 28.2 µM [inhibitor, single point]
CN(C)c1ccc(-c2cccc(C3CC=CC4C3C(=O)N(Cc3ccccc3)C4c3ccc(C(F)(F)F)cc3)c2)cc1 (stereo unspecified) 2.51 µM [inhibitor, full curve]
CCCCN(C(=O)CCC(=O)Nc1cc(C)on1)C(C(=O)NC(C)(C)C)c1ccccc1Cl (stereo unspecified) 28.2 µM [inhibitor, single point]
CC1(C)SC(=S)N(NC(=O)Nc2ccccc2)C1N(O)C(=O)Nc1ccccc1 (stereo unspecified) 5.01 µM [inhibitor, partial curve]
Cc1ccc(C)c(NCC(=O)c2ccc(Cl)cc2)c1 2.82 µM [inhibitor, full curve, poor fit]
O=C(c1ccccc1)c1cccn1CC(=O)N1CCN(c2ccc(F)cc2)CC1 10 µM [inhibitor, partial curve]
CCn1ccnc1CN(C)Cc1cn(-c2ccccc2)nc1-c1ccc(OC)cc1F 12.6 µM [inhibitor, single point]
CC(C)(C)c1ccccc1OCCCCCn1ccnc1 11.2 µM [inhibitor, single point]
O=C(Nc1ccccc1-c1ccccc1)C1CCCC1 10 µM [inhibitor, partial curve, poor fit]
Cc1ccsc1CN(Cc1ccco1)C(=O)c1ccc(Cl)cc1 12.6 µM [inhibitor, single point]
CCOC(=O)c1cc(-c2ccc(OC)cc2)n(CCC(=O)NCc2ccccc2OC)c1C 28.2 µM [inhibitor, single point]
CCOc1ccc(N2CC(C(=O)N3CCCc4ccccc43)CC2=O)cc1 (stereo unspecified) 28.2 µM [inhibitor, single point]
CCCc1ccc(C2=Nn3c(nnc3C(C)C)SC2)cc1 28.2 µM [inhibitor, single point]
CC1CC(C)CN(S(=O)(=O)c2ccc(Cl)cc2)C1 (stereo unspecified) 17.8 µM [inhibitor, single point]
Oc1c(Cl)cc(Cl)cc1C1=NNC(c2ccc(Cl)cc2)C1 (stereo unspecified) 10 µM [inhibitor, single point]
COc1ccc(CN2CCC(CO)(Cc3cccc(C(F)(F)F)c3)CC2)cc1Cn1cccn1 8.91 µM [inhibitor, partial curve, poor fit]
O=C(c1ccccc1)N1N=C(c2ccccc2)CC1c1ccccc1 (stereo unspecified) 2 µM [inhibitor, full curve, poor fit]
CC(C)(CNC(=O)c1ccc(S(=O)(=O)Nc2cccc(C(F)(F)F)c2)cc1)N1CCOCC1 1 µM [inhibitor, full curve, poor fit]
COc1ccccc1N1CCN(C(=O)c2nc(SC)ncc2Cl)CC1 0.891 µM [inhibitor, full curve, poor fit]
Cc1csc(NC(=O)c2sccc2C)n1 28.2 µM [inhibitor, single point]
COc1ccc(S(=O)(=O)N(Cc2ccco2)Cc2cc3ccccc3[nH]c2=O)cc1 11.2 µM [inhibitor, partial curve, poor fit]
OC[C@@H]1CN(Cc2ccc(Cl)cc2)C[C@H](n2cnc3c(NCc4ccc(F)cc4)ncnc32)O1 22.4 µM [inhibitor, single point]
CCOC(=O)N1CCc2c(sc(NCc3sccc3C)c2C(=O)Nc2ccc(OC)cc2OC)C1 11.2 µM [inhibitor, single point]
CC(C)c1ccc(/C=C/C(=O)NCCCN2CCOCC2)cc1 28.2 µM [inhibitor, single point]
Nc1ccc(C(=O)OCC(=O)NC2CCCc3ccccc32)cc1[N+](=O)[O-] (stereo unspecified) 28.2 µM [inhibitor, single point]
CCn1c(-c2ccc(C)cc2)nn(CC(=O)NCCc2ccccc2)c1=S 3.98 µM [inhibitor, full curve, poor fit]
Cc1cc(C)cc(NC(=O)C(Cc2ccccc2)NS(=O)(=O)c2ccc3c(c2)c(=O)n(C)c(=O)n3C)c1 (stereo unspecified) 11.2 µM [inhibitor, partial curve, poor fit]
COc1ccc(N(CC(=O)NCCSCc2ccco2)S(=O)(=O)c2ccc(C)cc2)cc1 28.2 µM [inhibitor, single point]
CCC(NC(=O)CCc1ccccc1)c1ccccc1 (stereo unspecified) 0.891 µM [inhibitor, full curve, poor fit]
CC(C)Cc1ccc(CN2CCCC(NC(=O)Cn3cnnn3)C2)cc1 (stereo unspecified) 28.2 µM [inhibitor, single point]
COC(=O)c1ccc2nc(-c3cccc(Cl)c3)c(Cc3ccsc3)n2c1 28.2 µM [inhibitor, single point]
COc1ccc(-n2nnnc2-c2ccccc2)cc1 7.08 µM [inhibitor, partial curve, poor fit]
CC(Oc1ccc(F)cc1)C(=O)N1CCC(c2nc3ccccc3s2)CC1 (stereo unspecified) 11.2 µM [inhibitor, partial curve, poor fit]
COc1cccc(N2CCN(CC(=O)Nc3ccccc3C(=O)NCCc3ccccc3)CC2)c1 25.1 µM [inhibitor, single point]
CCOC(=O)c1c(C)[nH]c(C2=NNC(=NC3CC3)SC2)c1C 7.94 µM [inhibitor, partial curve, poor fit]
O=C(c1ccc(Cl)cc1)C1CCN(CC(=O)N2CCCCC2)CC1 5.01 µM [inhibitor, partial curve]
Cc1ccc(-n2c(=O)c3cccnc3n2CC(=O)Nc2ccc(Br)cc2)cc1C 28.2 µM [inhibitor, single point]

Potency, active:
NC1=C(Br)C(=O)c2ncccc2C1=O 3.16 µM
Cc1c(Br)cc(C(=O)N2CCCCCC2)c(C)c1C 10 µM
COc1ccc(N(CCC(=O)Nc2ccccc2F)S(=O)(=O)c2ccc(C)cc2C)cc1 10 µM
